# Results published in PubChem BioAssay AID1508624 (National Center for Advancing Translational Sciences (NCATS), 2021).
# Screen size: about 48,000 compounds; about 120 (0.25%) were called active. About 4% were inconclusive and are not listed. Calls come from the whole dose curve; as a rule, active = well fitted activation curve with a large enough effect; inconclusive = small, poorly fitted or top-dose-only effect, or another doubt; inactive = no such curve, though single readings can be large or run the other way. Some of the results follow.
# Test: Primary qHTS for Identification of Small Molecule Activators of Huntingtin-Antisense Promoter Activity; note: nearly all actives have a fitted effect of over 55% in size
# Details: HEK293 HTT-AS promoter firefly luciferase reporter (activity 0% = vehicle and -100% = no light), 24 h; series mostly up to 57.5 µM; activity change, positive = activation: at the top concentration
# Summary of the method: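 Firefly luciferase signal from promoter-reporter HEK293 cells was scaled between vehicle (0%) and zero RLU (-100%). Compounds were tested at final concentrations of up to 57.5 uM over 24 h at 37 degrees C. PTC124 at 50 uM final served as control inhibitor.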
row,SMILES,"activity change, positive = activation"
1,COc1ccccc1OC(C)C(=O)Nc1c(C(=O)c2ccc(Cl)cc2)oc2ccccc12 (stereo unspecified),inactive: -10.4%
2,CCn1c(C)c(C)c2cc(C(=O)NCCCN3CCCCC3)ccc21,inactive: -11.9%
3,CCC(=O)N1c2ccccc2CC1C(=O)NCCN1CCN(c2cccc(C(F)(F)F)c2)CC1 (stereo unspecified),inactive: -18.6%
4,Cc1ccccc1CSc1nc2cc(C(=O)NC3CCCC3)ccc2c(=O)n1Cc1ccccc1,inactive: -4.06%
5,Cc1cc2c(cc1C)NC(CC(=O)Nc1ccccc1)C(=O)N2 (stereo unspecified),inactive: -4.17%
6,Cc1ccc(O)c(NC(=O)c2ccc(Br)c(S(=O)(=O)N3CCCCC3)c2)c1,inactive: -42%
7,CCN(Cc1ccccc1)C(=O)Cn1cc(S(=O)(=O)Cc2cccc(Cl)c2)c2ccccc21,inactive: -18.7%
8,CCCSc1ccc2nc(NC(=O)OC)[nH]c2c1,inactive: 25.2%
9,CCc1ccc(NC(=O)C(=O)NCC(c2cccnc2)N2CCN(Cc3ccccc3)CC2)cc1 (stereo unspecified),inactive: -24.8%
10,O=C(CCCn1c(=O)c2cccn2c2ccc(F)cc21)NCc1ccc(Cl)cc1,inactive: -22.4%
11,Cc1ccc(-n2nc(CO)c(C(=O)NC(C)CCCc3ccccc3)n2)cc1C (stereo unspecified),inactive: -35.3%
12,CC1CCN(C(=O)CSc2c(C(C)C)cnc3c2c(=O)n(C)c(=O)n3C)CC1,inactive: -16.8%
13,COC(=O)CC1Oc2ccccc2-n2cc(-c3ccccc3)nc21 (stereo unspecified),inactive: -23.7%
14,O=S(=O)(c1ccccc1)c1nc(-c2ccc(Cl)cc2Cl)oc1N1CCCCC1,inactive: -16.6%
15,COc1ccc(C)cc1NC(=O)Cn1c(=O)cc(C)c2c(C)nn(C)c21,inactive: -93.6%
16,Cc1ccc(C(=O)Nc2cccc(O)c2)cc1S(=O)(=O)N1CCCCCC1,inactive: -5.54%
17,CCN(CC)CCCNC(=O)c1cn(CC)c2ccc(S(=O)(=O)N3CCc4ccccc4C3)cc2c1=O,inactive: -5.94%
18,COc1cccc(CNC(=O)c2ccc3c(c2)nnn3C2CCCC2)c1,inactive: 5.37%
19,Cc1ccc(N(CC(=O)NCc2ccc(F)cc2)S(=O)(=O)c2c(C)nn(C)c2C)cc1,inactive: -18.5%
20,CCCCSCCCNC(=O)c1cn(C)c2ccc(S(=O)(=O)N3CCCCC3)cc2c1=O,inactive: -9.81%
21,COc1ccc(-n2nc(C(=O)Nc3ccc(C)cn3)c3c4ccccc4n(C)c3c2=O)cc1,inactive: -6.49%

row,SMILES,"activity change, positive = activation"
1,O=C(CNC(=O)c1ccccc1F)OCc1cc(=O)n2ccsc2n1,inactive: -2.18%
2,CCN(CC)C(=O)Cn1c(=O)n(-c2ccc(OC)cc2OC)c(=O)c2c(C)c(C(=O)N(CC)CC)sc21,inactive: -6.8%
3,COc1ccc(NC(=O)c2c(-c3ccc(C)cc3)nnc3ccccc23)cc1Cl,inactive: -10.3%
4,COc1ccccc1C(=O)Nc1nnc(SCc2cc(=O)c3cc(Cl)ccc3[nH]2)s1,inactive: -7.87%
5,COc1ccc(OC)c(NC(=O)Cn2ccc3ccccc3c2=O)c1,inactive: -2.04%
6,Cc1ccc(C)c(N2CCN(C(=O)C3CCCN(S(=O)(=O)c4cccc5nsnc45)C3)CC2)c1 (stereo unspecified),inactive: -45.5%
7,CCN1CCN(c2cc3c(cc2F)c(=O)c(S(=O)(=O)c2ccc(OC)cc2)cn3CC)CC1,inactive: -11.9%
8,Cn1c(C(=O)NCc2ccccc2F)cc2oc3ccccc3c21,inactive: 10.1%
9,Cc1c(C(=O)Nc2cccc(C(F)(F)F)c2)sc2nc3n(c(=O)c12)CCCC3,inactive: -9.86%
10,O=C(c1ccco1)n1nc(-c2ccccc2)nc1NCc1ccc(F)cc1,inactive: -1.23%
11,COc1cccc2sc(N(Cc3cccnc3)C(=O)Cc3ccccc3)nc12,inactive: -25.6%
12,CCN1CCN(c2oc(-c3ccc(COc4ccc(C)cc4)o3)nc2C#N)CC1,inactive: -20.9%
13,CCCCNc1ncnc2c1nnn2C,inactive: 10.4%
14,COc1ccc2oc(-c3cccc(NC(=O)c4ccc(C#N)cc4F)c3)nc2c1,inactive: 17.9%
15,CCCCNC(=O)c1ccc2c(c1)NC(=O)C(CS(=O)(=O)Cc1cccc(C)c1)N2 (stereo unspecified),inactive: -13.8%
16,COc1cc(C(=O)Nc2ccc3[nH]c(=O)sc3c2)cc(OC)c1OC,inactive: -5.55%
17,CC1=C(C(=O)Nc2cccnc2)C(c2cccc(F)c2)n2nc(SCc3ccccc3)nc2N1 (stereo unspecified),inactive: -13.4%
18,CC(C)C(=O)N1c2ncnn2C2(CCCCC2)[C@@H]2CCCC[C@@H]21,inactive: -36.7%
19,COc1cccc(NC(=O)Cn2c(=O)n(-c3ccc(Cl)cc3)c(=O)c3oc4ccccc4c32)c1,inactive: -17%
20,COc1ccc(C2CC(=O)N(Cc3ccc(F)cc3)c3ccccc3S2)cc1 (stereo unspecified),inactive: -49.2%
21,Cc1ccc(S(=O)(=O)N2CCN(Cc3noc(CCC(=O)N4CCCCC4)n3)CC2)c(C)c1,inactive: -24.1%

row,SMILES,"activity change, positive = activation"
1,COc1cccc(C(=O)NCC(=O)OCc2cc(=O)n3c(C)csc3n2)c1,inactive: 17.2%
2,CC(C)Cn1c(=O)c2sccc2n2c(CCCC(=O)NCCc3ccccc3)nnc12,inactive: -1.72%
3,Cc1ccc(S(=O)(=O)c2cn(CC(=O)Nc3ccc4c(c3)OCO4)c3ccccc3c2=O)cc1,inactive: -4.9%
4,Cc1sc2ncn(CC(=O)N3CCN(c4ccc(F)cc4)CC3)c(=O)c2c1S(=O)(=O)N1CCCCC1,inactive: 8.14%
5,Cc1ccc(Nc2nc3c(S(=O)(=O)c4ccccc4)nnn3c3ccsc23)c(C)c1,inactive: -14.6%
6,Cc1cccc2sc(N(CCCN(C)C)C(=O)c3ccc(Cl)s3)nc12,inactive: -6.68%
7,COc1cc(C2C(C(=O)OCC(C)C)=C(C)N=C3SCCC(=O)N32)ccc1OCc1ccccc1 (stereo unspecified),inactive: -18.7%
8,Cc1cccc(NC(=O)Cn2nnc(C(=O)Nc3ccc(F)c(Cl)c3)c2N)c1,inactive: -18.7%
9,COc1cccc(NC(=O)CSc2nc(=O)n(Cc3ccco3)c3c2CCC3)c1,inactive: -54.2%
10,N#Cc1c(NC(=O)c2cccc3ccccc23)sc2c1CCCC2,inactive: -31.9%
11,CC1=C(C(=O)Nc2ccc(C)cc2C)C(C(C)C)n2nc(SCc3ccccc3Cl)nc2N1 (stereo unspecified),inactive: -12.7%
12,Cc1cc(C)c2nc(N(Cc3cccnc3)C(=O)c3ccc(S(=O)(=O)N(C)C)cc3)sc2c1,inactive: 0.317%
13,C=CCC(CC=C)(CNC(=O)C(=O)Nc1cc(C)ccc1OC)c1ccc(OC)c(OC)c1,inactive: -9.53%
14,O=C(Cn1cc(S(=O)(=O)N2CCCC2)c(S(=O)(=O)N2CCCC2)c1)Nc1cccc(F)c1,inactive: -6.5%
15,COc1ccccc1CNC(=O)CN1C(=O)COc2ccc(S(=O)(=O)N3CCC(C)CC3)cc21,inactive: -14.8%
16,CCc1ccc(NC(=O)C(C)n2nnc3sc(-c4ccccc4)cc3c2=O)cc1 (stereo unspecified),inactive: -5.94%
17,CCOC(=O)c1cccc(NC(=O)C2CCCN(S(=O)(=O)c3ccc4c(c3)oc(=O)n4C)C2)c1 (stereo unspecified),inactive: -31.9%
18,COc1ccc(NC(=O)/C(C#N)=C/c2cc(C)n(-c3ccc(F)cc3)c2C)cc1,inactive: -8.02%
19,CC(C)C(=O)N(Cc1ccccc1)S(=O)(=O)c1ccc2c(c1)oc(=O)n2C,inactive: -32.6%
